According to US20210147536A1 (MAB VENTURE BIOPHARM, published 2021):

Biological target: T1, human LAG-3 on the cell surface (human, UniProt P18627 23-525)
T1 construct: whole, on cells; also called cells expressing the human LAG-3
T1 sequence (looked up): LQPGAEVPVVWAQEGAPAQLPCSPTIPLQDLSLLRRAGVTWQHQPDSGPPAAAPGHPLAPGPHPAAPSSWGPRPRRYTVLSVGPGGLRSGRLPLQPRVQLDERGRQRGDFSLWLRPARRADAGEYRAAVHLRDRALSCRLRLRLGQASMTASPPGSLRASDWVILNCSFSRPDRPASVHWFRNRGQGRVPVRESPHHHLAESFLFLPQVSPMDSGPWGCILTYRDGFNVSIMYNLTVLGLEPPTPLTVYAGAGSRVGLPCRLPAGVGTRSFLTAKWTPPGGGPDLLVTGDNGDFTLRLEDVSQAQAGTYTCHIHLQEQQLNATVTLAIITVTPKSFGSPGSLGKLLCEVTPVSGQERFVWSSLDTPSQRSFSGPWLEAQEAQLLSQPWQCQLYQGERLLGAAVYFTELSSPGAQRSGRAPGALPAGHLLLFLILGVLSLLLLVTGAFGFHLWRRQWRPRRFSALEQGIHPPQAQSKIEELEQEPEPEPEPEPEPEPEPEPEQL
Assay: flow cytometry, soluble scFv supernatant on activated human CD4+ T cells, anti-His-PE

B1: scFv single chain antibody 11471 (scFv)
scFv: RVRLQESGPGLVKPSQTLSLTCTVSGGSISSSNWWSWVRQPPGKGLEWIGEIYHSGSTNYNPSLKSRVTISVDKSKNQFSLKLSSVTAADTAVYYCARDRAIRDAFDIWGQGTTVTVSSGGGGSGGGGSGGGGSGGGGAS[about 100 residues omitted]LFGGGTKLEIK
notes: From phagemid pCLS1.0, which adds a C-terminal Myc-His tag
binding result: binds
